Assay results reported in paper PMC7761795 (Biochemistry, 2020).

Target: UBE2D2 (human, UniProt P62837)
Assay: ITC

UniProt P62837, sequence (P62837 whole entry): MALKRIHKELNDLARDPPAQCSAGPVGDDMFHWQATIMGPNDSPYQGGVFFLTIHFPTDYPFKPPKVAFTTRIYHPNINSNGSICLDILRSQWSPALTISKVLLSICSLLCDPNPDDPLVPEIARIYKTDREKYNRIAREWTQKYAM

B1: OTUB1 (C91S) (enzyme)
chain: not shown
binding result: binds
